Laboratory results from paper PMC4336329 (PLoS ONE, 2015).
The campaign covered roughly 310,000 compounds. About 2,200 (0.71%) showed an effect of 50% or more. Effects have a minus sign here. The list shows a part of the results.

biological target: human ether-à-go-go-related gene (hERG) potassium channel (human, UniProt Q12809); experiment: primary screen, population patch clamp on CHO cells stably expressing hERG
Sequence (Q12809 whole entry, looked up): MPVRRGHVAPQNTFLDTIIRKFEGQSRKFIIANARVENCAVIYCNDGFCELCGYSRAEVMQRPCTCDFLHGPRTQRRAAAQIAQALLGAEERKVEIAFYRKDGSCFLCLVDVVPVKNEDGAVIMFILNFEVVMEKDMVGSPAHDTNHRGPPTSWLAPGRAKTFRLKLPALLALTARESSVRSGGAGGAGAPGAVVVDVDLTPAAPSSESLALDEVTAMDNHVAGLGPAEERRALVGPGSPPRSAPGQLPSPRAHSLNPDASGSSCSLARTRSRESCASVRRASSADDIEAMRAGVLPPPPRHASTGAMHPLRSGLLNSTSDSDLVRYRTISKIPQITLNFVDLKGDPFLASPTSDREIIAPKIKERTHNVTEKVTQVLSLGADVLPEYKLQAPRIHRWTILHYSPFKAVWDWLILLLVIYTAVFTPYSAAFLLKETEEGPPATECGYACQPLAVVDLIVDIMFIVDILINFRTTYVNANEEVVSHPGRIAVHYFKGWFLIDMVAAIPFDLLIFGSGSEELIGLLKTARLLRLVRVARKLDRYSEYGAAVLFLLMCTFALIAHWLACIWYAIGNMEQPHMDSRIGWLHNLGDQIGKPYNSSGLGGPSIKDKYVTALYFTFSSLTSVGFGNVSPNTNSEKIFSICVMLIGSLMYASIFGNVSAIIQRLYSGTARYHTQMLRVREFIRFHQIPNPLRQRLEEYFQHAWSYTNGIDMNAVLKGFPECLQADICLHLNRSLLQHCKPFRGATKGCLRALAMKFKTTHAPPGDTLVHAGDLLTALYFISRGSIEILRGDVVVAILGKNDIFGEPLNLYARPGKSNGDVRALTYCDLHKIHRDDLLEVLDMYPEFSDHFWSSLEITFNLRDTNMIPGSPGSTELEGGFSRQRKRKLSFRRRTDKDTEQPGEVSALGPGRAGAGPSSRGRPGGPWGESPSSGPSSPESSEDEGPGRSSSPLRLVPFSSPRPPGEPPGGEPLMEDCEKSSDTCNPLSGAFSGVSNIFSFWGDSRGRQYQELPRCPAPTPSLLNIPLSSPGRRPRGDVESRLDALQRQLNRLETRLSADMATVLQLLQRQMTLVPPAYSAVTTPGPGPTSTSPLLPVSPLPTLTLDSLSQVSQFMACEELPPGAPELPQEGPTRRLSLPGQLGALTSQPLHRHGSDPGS

Structure (SMILES)	hERG current change (%, negative = inhibition) at 1uM [%]
O=[N+]([O-])c1ccccc1S(=O)(=O)N1CCCC(C(F)(F)F)C1 (stereo not shown)	8.01
COc1ccc(N2CCN(C(=O)COC(=O)CCOc3cc(C)ccc3C)CC2)cc1	2.26
CCc1cccc(OCCCCNCCOC)c1	10.7
O=C1CC(Nc2ccc(N3CCOCC3)cc2)C(=O)N1c1ccccc1 (stereo not shown)	16.3
O=C1CC(c2ccco2)CC(O)=C1C=NCC1NCCc2ccccc21 (stereo not shown)	1.21
CCN(CC)S(=O)(=O)c1cccc(C(=O)NCCc2ccccc2)c1	-5.67
O=C(O)c1cc(-c2ccc3ccccc3n2)nc2ccccc12	6.03
COc1ccc(CNC(=O)C/C(C)=N/NC(=O)C23CC4CC(CC(C4)C2)C3)cc1	7.33
COc1cccc(N2C(=O)c3cccnc3C2O)c1 (stereo not shown)	13.3
COc1ccc(C2C(C#N)=C(N)Oc3cc(C)[nH]c(=O)c32)c(OC)c1OC (stereo not shown)	8.69
N#CCn1c(CN2CCCC2)nc2ccccc2c1=O	12.2
CCN(CC)c1ccc(NC(=O)CCN2C(=O)c3ccccc3S2(=O)=O)c(C)c1	18.2
CCC(=O)Nc1ccc(NC(=O)/C=C/c2ccc(Cl)cc2)cc1	17.8
CC(C)N1CCN(C(=O)c2ccc(OC3CCN(CCc4ccccc4)CC3)cc2)CC1	7.01
CC1N(O)C(c2ccc(Cl)cc2Cl)N(O)C1(C)C (stereo not shown)	8.08
COc1ccc(CCNC(=O)c2ccc(CS(=O)Cc3ccc(Cl)cc3)o2)cc1OC (stereo not shown)	-4.01
O=C(COC(=O)CN1C(=O)c2ccccc2C1=O)Nc1cccc(F)c1	5.95
COc1cc(OC)cc(C(=O)N2CCN(C3CCN(Cc4ccccc4)CC3)CC2)c1.O=C(O)C(=O)O	0.551
C=CCn1c(SCC(=O)Nc2ccc(C(=O)OC(C)C)cc2)nnc1-c1cccs1	9.31
Cc1cccc(C)c1NC(=O)CN(C)C(=O)CC1CC2CCC1C2 (stereo not shown)	13.4
CCCc1[nH]n(-c2ccc([N+](=O)[O-])cc2)c(=O)c1C=NCCCn1ccnc1	-50.1
COc1ccc(-n2ncc3c(NCCCn4ccnc4)ncnc32)cc1	-4.83

Structure (SMILES)	hERG current change (%, negative = inhibition) at 1uM [%]
CN(Cc1ccccc1)C(=O)CN1C(=O)C2C3C=CC(C3)C2C1=O (stereo not shown)	2.89
COc1ccc(CNC(=O)CN(C(=O)c2csnn2)c2cccc3ccccc23)cc1	1.15
COc1ccccc1NC(=O)CSc1nc2c(sc3ccccc32)c(=O)n1CCN(C)C.Cl	15.1
CC1=C(C(=O)OC(C)C)C(/C=C/c2ccccc2)NC(=O)N1 (stereo not shown)	9.91
CCCCNC(=O)c1cc(C)nn1-c1ccccc1	11.9
CCOc1ccccc1-n1c(SCC(=O)Nc2nccs2)nnc1-c1ccoc1C	11.5
CC1CC(=O)Nc2ccccc2N1S(=O)(=O)c1ccc(F)cc1F (stereo not shown)	7.34
O=S(=O)(c1cc(Cl)ccc1Br)N1CCOCC1	2.79
COc1cc(/C=N/NC(=O)c2sc3ccccc3c2Cl)ccc1OC(=O)c1ccc([N+](=O)[O-])cc1	9.73
CC(C)[C@H](NC(=O)C1CC(=O)N(c2ccc(F)cc2)C1)C(=O)N1CCCCC1 (stereo partly shown)	5.88
S=c1[nH]nc2nnc3ccccc3n12	12.8
CCCCc1ccc(NC(=O)c2ccc(NS(C)(=O)=O)cc2)cc1	17.1
COc1ccc(OCCC(=O)Nc2nccs2)cc1	11.3
CC(C)(C)n1nnnc1C(c1cccs1)N1CCN(C(=O)c2ccco2)CC1 (stereo not shown)	-0.148
COc1ccccc1N1CCN(CC(=O)c2ccc(F)cc2)CC1.Cl	16.7
O=C(/C=C/Nc1ccccc1)c1ccc(Oc2ncccn2)cc1	7.54
COc1ccc(CC(=O)Nc2ccc(S(=O)(=O)N(C)C)cc2)cc1OC	12.2
O=C(Nc1cc(C(F)(F)F)ccc1-n1cncn1)C1CC1	13.7
O=C(Nc1ccc(S(=O)(=O)Nc2nccs2)cc1)C1CC(=O)N(c2ccccc2)C1 (stereo not shown)	10.2
Cc1cccc(C2=NOC(=O)/C2=C\c2ccccc2F)c1	9.72
O=C(COC(=O)c1cc([N+](=O)[O-])ccc1N1CCOCC1)Nc1c(Cl)cccc1C(F)(F)F	-3.01
CC(C)c1ccc(NC(=O)NC(C)c2ccc3c(c2)OCO3)cc1 (stereo not shown)	7.37

Structure (SMILES)	hERG current change (%, negative = inhibition) at 1uM [%]
O=C(O)CCCN1C(=O)C2C3C=CC(C2C1=O)C1C(=O)N(CCCC(=O)O)C(=O)C31 (stereo not shown)	11.6
COc1ccc(C2CC(=O)Oc3ccc(C(C)(C)C)cc32)cc1 (stereo not shown)	4.67
O=C(Cn1nnc(-c2ccc3c(c2)OCO3)n1)Nc1ccccc1C(=O)O	17.4
COc1cc2c(cc1OC)C1(CCCCC1)CN(C)C2.Cl	-6.18
C=CCN1C(=O)C(Cc2ccccc2)S/C1=N/N=C/c1cccs1 (stereo not shown)	13.5
OCCn1c(SCCOc2ccccc2)nc2ccccc21	3.95
O=C1CS/C(=N/N=C2C3CC4CC(C3)CC2C4)N1	-4.65
C=CCNC(=O)C1CC1(c1cccc(C)c1)c1cccc(C)c1 (stereo not shown)	9.37
Cc1ccc(-c2nn(CC(=O)NCc3cc(-c4nn(C)c(=O)c5ccccc45)ccc3C)c(=O)c3ccccc23)cc1	-17.1
COc1ccc(Cn2c(=O)[nH]c3cc(C(=O)N4CCN(c5ccccc5OC)CC4)ccc3c2=O)cc1	4.08
C/C(=N\Nc1nc2ccccc2[nH]1)c1ccc(C)o1	8.2
COc1cc(NC(=O)C2CCCO2)c(C(=O)O)cc1OC (stereo not shown)	11.6
CC(C)(C)NC(=O)c1ccc(Cn2cc(C(F)(F)F)ccc2=O)cc1	14.7
N/C(=N\OC(=O)c1ccc(Cl)c(Cl)c1)c1cccc(CSc2ccccn2)c1	6.15
NC(=S)N/N=C/c1c[nH]c2ccccc12	-0.424
Cc1ccc(-n2ncc3c(=O)n(CC(=O)NC4CCCCC4)cnc32)cc1C	13.5
CCNc1nc(Oc2ccc(=O)n(C)n2)nc(N2CCOCC2)n1	2.51
Cc1cc(NC(=O)CC(C)C)c(=O)n(Cc2c(F)cccc2Cl)c1	4.91
O=C(Nc1ccccn1)c1ccc(C(=O)Nc2ccccn2)cc1	12
Cc1cc(C(=O)N/N=C/c2cc(Br)c(Br)o2)n[nH]1	16.9
C#CC[N+]1(CC#Cc2ccc(C)cc2)CCCCC1.[Br-]	2.2
CCC(C)NC(=O)c1c(N)n(Cc2ccc3c(c2)OCO3)c2nc3ccccc3nc12 (stereo not shown)	-8.79

Structure (SMILES)	hERG current change (%, negative = inhibition) at 1uM [%]
Cc1ccc(NC(=O)N2CCC(C(=O)Nc3ccc(C)cc3C)CC2)cc1	16.7
Cc1ccc(S(=O)(=O)NN=C2C3CC4CC(C3)CC2C4)cc1	10.8
N#Cc1cccn1-c1nccs1	7.58
COc1ccc2ccccc2c1CN1CCN(C(=O)c2ccccc2)CC1	-1.78
N#C/C(=C\c1cc(Cl)cc(Cl)c1O)C(=O)NC1CCCCC1	-9.47
COc1ccc(C(=O)N2CCCc3ccccc32)cc1OC	15
Cc1ccc(N(CCC#N)C(=O)COC(=O)C2CCN(S(=O)(=O)c3ccc(C)c(C)c3)CC2)cc1	10.4
COc1ccc(C(=O)NC2=NCCS2)cc1S(=O)(=O)N1CCCCC1C (stereo not shown)	3.41
COc1ccc(CCNC(=O)CSc2ccc(-c3ccco3)nn2)cc1	10.1
O=C(NCCO)NC(=S)c1ccccc1	0.517
Cc1ccc(NC(=O)COC(=O)C2CC2C)c(S(=O)(=O)N2CCCCC2)c1 (stereo not shown)	-5.49
COc1cccc(C(=O)CC(=O)C(=O)Nc2cc(OC)ccc2OC)c1	12
COc1ccc2cc(-c3cc(C(=O)OCC(=O)NC4CCS(=O)(=O)C4)c4ccccc4n3)ccc2c1 (stereo not shown)	13.9
COc1cccc(OCC(=O)N(C)Cc2nc(-c3ccccc3)no2)c1	10.2
O=C(Nc1cccc(S(=O)(=O)N2CCCC2)c1)c1ccc2ccccc2n1	3.9
Cc1cc(C(=O)N/N=C2\CC(=O)CC(C)(C)C2)c(C)n1-c1ccc(F)cc1	12.6
Cc1ccnc(NC(=O)Nc2cccc(F)c2)c1	4.31
CC(C/C=N/NC(=O)COc1cc(Cl)ccc1Cl)c1ccccc1 (stereo not shown)	7.65
COc1cc(C(=O)NCC(=O)NCCCSc2ccccc2)cc(OC)c1OC	4.52
Cc1ccc(C)c2sc(NC(=O)CN3C(=O)CCC3=O)nc12	9.72
CC(=O)NNC(=O)CCn1nnc2ccccc21	12
CCOC(=O)Cn1c(CN2CCN(C(c3ccccc3)c3ccccc3)CC2)nc2c1c(=O)n(C)c(=O)n2C	4.93
